Laboratory results published in patent US20250091990A1, “DEUTERATED ORGANIC COMPOUNDS AND USES THEREOF” (ENGRAIL THERAPEUTICS, INC., priority 2022, published 2025).
Values joined by “and” are separate entries in the source; they are usually repeats but may differ in a detail not shown here. Equal values may be shown once. Read-outs that look alike come from different tables or passages of the source.

What was measured:
[1] = target: T1, human Serotonin 5-HT2A receptor (Homo sapiens, UniProt P28223); assay: Radioligand binding competition, filtration binding assay, 5-HT2A (labeled ketanserin); details: for Ki: CHO-K1 membranes
T1 construct: expressed in transfected cells; host or cells: CHO-K1

[2] = target: T1, human Serotonin 5-HT2A receptor; assay: IPOne HTRF assay, agonist mode, 5-HT2A; assay type: cell-based; details: IP-one
[3] = target: T1, human Serotonin 5-HT2A receptor; assay: IPOne HTRF assay, antagonist mode, 5-HT2A; assay type: cell-based; details: IP-one
[4] = [3H]-Ketanserin, average where marked c, read-out: Binding 5-HT2A IC50
[5] = average where marked c, read-out: 5-HT2A (agonist mode) EC50
[6] = numbers in parentheses that were averaged, read-out: Binding 5-HT2A IC50, single determinations
[7] = numbers in parentheses that were averaged, read-out: 5-HT2A (agonist mode) EC50, single determinations

T1 sequence (P28223 whole entry): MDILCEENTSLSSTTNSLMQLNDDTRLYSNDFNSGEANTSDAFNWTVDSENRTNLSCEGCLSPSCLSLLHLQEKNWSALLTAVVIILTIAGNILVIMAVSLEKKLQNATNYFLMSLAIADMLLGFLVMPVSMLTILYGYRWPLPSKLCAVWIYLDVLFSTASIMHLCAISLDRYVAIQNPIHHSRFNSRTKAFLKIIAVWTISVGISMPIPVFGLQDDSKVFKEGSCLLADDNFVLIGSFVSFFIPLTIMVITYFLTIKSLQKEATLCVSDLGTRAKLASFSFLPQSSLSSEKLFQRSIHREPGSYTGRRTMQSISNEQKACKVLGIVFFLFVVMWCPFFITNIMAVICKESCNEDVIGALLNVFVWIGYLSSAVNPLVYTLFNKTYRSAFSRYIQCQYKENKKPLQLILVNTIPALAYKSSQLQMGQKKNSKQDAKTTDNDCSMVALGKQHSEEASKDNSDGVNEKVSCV

SMILES	Ki ([1]; [3H]-Ketanserin) [nM]	IC50 [1, 4] [nM]	EC50 [2, 5] [nM]	IC50 [3] [nM]	IC50 [1, 6]	EC50 [2, 7]
CNc1cc(OC)c(C(=O)N[C@H]2CCN(Cc3ccccc3)[C@H]2C)cc1Cl (racemic) [Nemonapride, (±)-cis-N-(1-Benzyl-2-methylpyrrolidin-3-yl)-5-chloro-2-methoxy-4-methylaminobenzamide]	2.3	10	5.5	6.5	–	–
CNc1cc(OC)c(C(=O)N[C@@H]2CCN(Cc3ccccc3)[C@@H]2C)cc1Cl [cis (R,R) nemonapride, N-[(2R,3R)-1-benzyl-2-methylpyrrolidin-3-yl]-5-chloro-2-methoxy-4-(methylamino)benzamide]	3.3	14.5	3.4	> 3000	19.4 nM and 9.7 nM	4.4 nM and 2.9 nM and 4.8 nM and 1.6 nM
[2H]C([2H])([2H])Nc1cc(OC)c(C(=O)N[C@@H]2CCN(C([2H])([2H])c3ccccc3)[C@@H]2C)cc1Cl [Example 1, 5-Chloro-N-((2R,3R)-1-(dideutero(phenyl)methyl)-2-methylpyrrolidin-3-yl)-2-methoxy-4-(trideuteromethylamino)benzamide]	7.4	32.9	4.9	> 3000	45.2 nM and 20.5 nM	4.3 nM and 1.5 nM and 9.1 nM and 4.9 nM
